Measurements: a collection of fitness landscapes (doi:10.1016/j.celrep.2020.107928)
Over roughly 81,000 sequences, “one-hybrid fitness for binding NBS DNA” has its median near -0.1; the highest 2% begin near 0.36. Some of the results follow.

B1: Caulobacter ParB omega fusion; a variant is named by its letters at X, in order, B8GW30 (parent)
chain: MESVVVGEPGMSEGRRGLGRGLSALLGEVDAAPAQAPGEQLGGSREAPIEILQRNPDQPRRTFREEDLEDLSNSIREKGVLQPILVRPSPDTAGEYQIVAGERAWRAAQRAGLKTVPIMVRELDDLAVLEIGIIENVQRADLNVLEEALSYKVLMEKFERTQENIAQTIGKSXSHVANXMRLLXLPDEVQSYLVSGELTAXHARAIAAAADPVALAKQIIEGGLSVRETEALARKAPNLSAGKSKGGRPPRVKDTDTQALESDLSSVLGLDVSIDHRGSTGTLTITYATLEQLDDLCNRLTRGI

Variants of: B1
Test: one-hybrid fitness for binding NBS DNA (the Noc-binding site; scaled: cognate 1, non-cognate 0); higher = stronger binding
Details: with NBS DNA site
Method in brief: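 Pre- and post-selection plasmids were Illumina-sequenced, three replicate libraries were pooled, and any variant with under 10 reads was removed. The libraries were Caulobacter ParB with four specificity codons randomised, selected in E. coli USO through a HIS3 reporter whose site is 19 bp from the promoter. Cells grew 48 hours at 37°C on M9 without histidine, with 0.1 mM IPTG and 5 mM 3-AT. Fitness is the log change in variant-to-wild-type read ratio, rescaled against cognate and non-cognate.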

Variant | one-hybrid fitness for binding NBS DNA
VKHS | ≤ 0.2
ANAA | ≤ 0.2
RCCT | 0.39
TELK | ≤ 0.2
DSGC | ≤ 0.2
PYTF | ≤ 0.2
SAGC | ≤ 0.2
TKLN | ≤ 0.2
PAIE | ≤ 0.2
GSQV | ≤ 0.2
WQVR | ≤ 0.2
PYSR | ≤ 0.2
AWGD | ≤ 0.2
TYSL | ≤ 0.2
AAQY | ≤ 0.2
EISR | ≤ 0.2
NATR | ≤ 0.2
CLVA | ≤ 0.2
TCHG | ≤ 0.2
MRLR | ≤ 0.2
PWRT | ≤ 0.2
PVGI | ≤ 0.2
ARLW | ≤ 0.2
LLRN | ≤ 0.2
FPTQ | ≤ 0.2
AQEF | ≤ 0.2

Variant | one-hybrid fitness for binding NBS DNA
WLSC | ≤ 0.2
EKAG | ≤ 0.2
FNHD | ≤ 0.2
PEPF | ≤ 0.2
RNSA | ≤ 0.2
AGHG | ≤ 0.2
DLFV | ≤ 0.2
LMPV | ≤ 0.2
GIIG | ≤ 0.2
SSHI | ≤ 0.2
AFEC | ≤ 0.2
YTAI | ≤ 0.2
LQAM | ≤ 0.2
SKHW | ≤ 0.2
NEYR | ≤ 0.2
RGIK | ≤ 0.2
CAAG | ≤ 0.2
SIPI | ≤ 0.2
VNSG | ≤ 0.2
QNPM | ≤ 0.2
FHTR | ≤ 0.2
TYYQ | ≤ 0.2
PLLT | ≤ 0.2
RLWP | ≤ 0.2
MIPS | ≤ 0.2
VKNA | ≤ 0.2

Variant | one-hybrid fitness for binding NBS DNA
STHA | ≤ 0.2
SMYG | ≤ 0.2
RMMN | ≤ 0.2
RASC | ≤ 0.2
VRVK | ≤ 0.2
LRHL | ≤ 0.2
YRSC | ≤ 0.2
IPYR | ≤ 0.2
EMTG | ≤ 0.2
SWKM | ≤ 0.2
NRQS | ≤ 0.2
HTHR | ≤ 0.2
QHMS | 0.31
IYKR | 0.241
MISM | ≤ 0.2
GFFV | ≤ 0.2
EMAR | ≤ 0.2
QMCA | ≤ 0.2
FSAR | ≤ 0.2
WNVT | ≤ 0.2
HFVG | ≤ 0.2
GLPY | ≤ 0.2
RELL | ≤ 0.2
DPSV | ≤ 0.2
KPKT | ≤ 0.2
TVGG | ≤ 0.2

Variant | one-hybrid fitness for binding NBS DNA
ECIS | ≤ 0.2
PAWN | ≤ 0.2
QHMH | ≤ 0.2
YLYG | ≤ 0.2
SCSP | ≤ 0.2
RSVI | ≤ 0.2
INNS | ≤ 0.2
NNMI | ≤ 0.2
LTIC | ≤ 0.2
QRQI | 0.291
CLPS | ≤ 0.2
TVMT | ≤ 0.2
ESFR | ≤ 0.2
RMQM | ≤ 0.2
LISW | ≤ 0.2
RVDT | ≤ 0.2
CTPG | ≤ 0.2
HEKY | ≤ 0.2
GVTL | ≤ 0.2
KLLK | ≤ 0.2
NVGT | ≤ 0.2
ARVD | ≤ 0.2
IEMT | ≤ 0.2
EQTS | ≤ 0.2
HNYE | ≤ 0.2
KMRH | ≤ 0.2

Variant | one-hybrid fitness for binding NBS DNA
RIRD | ≤ 0.2
LPAM | ≤ 0.2
GQMR | ≤ 0.2
ANCT | ≤ 0.2
TQCS | ≤ 0.2
RGDE | ≤ 0.2
QEPE | ≤ 0.2
IWNF | ≤ 0.2
YSCA | ≤ 0.2
RYNP | ≤ 0.2
RSYE | ≤ 0.2
TTTS | ≤ 0.2
DGSV | ≤ 0.2
RHIR | ≤ 0.2
TAHE | ≤ 0.2
ENIF | ≤ 0.2
GEAR | ≤ 0.2
MRNV | ≤ 0.2
VYHS | ≤ 0.2
INIP | ≤ 0.2
SATS | ≤ 0.2
WIRT | ≤ 0.2
NPSY | ≤ 0.2
WSPS | ≤ 0.2
FPRL | ≤ 0.2
TGDG | ≤ 0.2

Variant | one-hybrid fitness for binding NBS DNA
GNYG | ≤ 0.2
WHNC | ≤ 0.2
SKMR | ≤ 0.2
TLDV | ≤ 0.2
YRYT | ≤ 0.2
WMGS | ≤ 0.2
QGLW | ≤ 0.2
TEEF | ≤ 0.2
YPSG | ≤ 0.2
LGLS | ≤ 0.2
IVQS | ≤ 0.2
GALS | ≤ 0.2
RNKY | ≤ 0.2
TYEC | ≤ 0.2
AWTS | ≤ 0.2
HYHD | ≤ 0.2
MPMR | ≤ 0.2
LAGA | ≤ 0.2
ERLS | ≤ 0.2
NPMC | ≤ 0.2
HFSV | ≤ 0.2
CVTN | ≤ 0.2
RTVV | ≤ 0.2
